Test results from patent US20220389066A1, “POLYPEPTIDES” (Affibody AB, priority 2019, published 2022).

How the values were obtained:
SP100 nuclear antigen = target: T1, SP100 nuclear antigen (Homo sapiens, UniProt P23497); assay: SPR binding specificity study, SP100; conditions: analyte SP100 nuclear antigen; captured on HSA
T1 construct: purchased Biorbyt orb169341
T1 sequence (P23497 1-879): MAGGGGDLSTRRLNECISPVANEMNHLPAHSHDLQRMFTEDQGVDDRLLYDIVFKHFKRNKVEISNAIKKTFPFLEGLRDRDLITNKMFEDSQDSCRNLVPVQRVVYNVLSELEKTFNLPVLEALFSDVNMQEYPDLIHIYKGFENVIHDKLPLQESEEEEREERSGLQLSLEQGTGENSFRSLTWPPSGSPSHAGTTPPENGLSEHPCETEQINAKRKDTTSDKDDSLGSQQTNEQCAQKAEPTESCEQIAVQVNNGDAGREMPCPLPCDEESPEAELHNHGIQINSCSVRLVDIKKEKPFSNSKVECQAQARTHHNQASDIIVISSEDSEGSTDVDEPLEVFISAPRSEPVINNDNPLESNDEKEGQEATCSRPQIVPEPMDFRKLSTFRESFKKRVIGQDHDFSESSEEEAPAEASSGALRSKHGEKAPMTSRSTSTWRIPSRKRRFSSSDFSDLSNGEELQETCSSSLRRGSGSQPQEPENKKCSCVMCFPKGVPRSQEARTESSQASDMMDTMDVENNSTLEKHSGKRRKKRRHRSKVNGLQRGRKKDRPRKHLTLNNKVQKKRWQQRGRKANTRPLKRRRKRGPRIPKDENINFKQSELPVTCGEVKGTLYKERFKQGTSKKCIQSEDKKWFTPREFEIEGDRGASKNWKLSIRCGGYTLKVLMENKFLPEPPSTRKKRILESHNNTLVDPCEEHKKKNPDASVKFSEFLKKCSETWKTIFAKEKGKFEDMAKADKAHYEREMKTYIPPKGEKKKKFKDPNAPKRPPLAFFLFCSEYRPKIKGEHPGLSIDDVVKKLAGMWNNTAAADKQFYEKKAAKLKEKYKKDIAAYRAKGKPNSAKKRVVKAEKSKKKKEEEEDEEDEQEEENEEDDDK
Method: (§1) HSA (Albucult®, Novozyme) was diluted to 10 μg/ml in acetate, pH 4.0, and immobilized onto a CM5 sensor chip using a Biacore 2000 instrument. Immobilization was performed by amine chemistry, using amine coupling kit, according to the manufacturer's instructions. The first surface of each chip was activated and deactivated for use as a reference cell (blank surface) during analyte injections. HBS-EP was used as running buffer, supplemented with 1.5 mM DTT when analyzing the binding to HMGB1(red). ZZA4263 was injected at a concentration of 100 nM for 4 minutes over the HSA and the reference sensor chip surfaces at a constant flow rate of 30 μl/min. This was followed by 4 minutes' injection of 0, 8.3, 25, 75, 225 and 675 nM of HMGB1(red), HMGB1(disulfide), HMGB2 (Biorbyt, cat. no. orb180287), HMGB3 (Biorbyt, cat. no. orb180288), SP100 (Biorbyt, cat. no. orb169341), TNF (R&D Systems, cat. no. 210-TA), IL-6 (R&D Systems, cat. no. 206-IL) and IL-1β (R&D Systems, cat. no. 201-LB/CF), respectively. The proteins were allowed to dissociate for 20 minutes before the chip surfaces were regenerated by two 10 second pulses using 10 mM HCl. The reference surface and the buffer sample were subtracted from all curves. The buffer sample was subtracted to adjust for the dissociation of ZZA4263 from HSA. All curves were fitted to a kinetic 1:1 Langmuir model in the BIA Evaluation software to estimate the binding properties (ka, kd and KD).

HMGB2, HMGB3, SP100 = assay: SPR binding specificity study, homologous proteins relative to HMGB1(red); design: species or system human; conditions: ratio of KD values
Method: as §1, with “All curves were fitted to a kinetic 1:1 Langmuir model in the BIA Evaluation software to estimate the binding properties (ka, kd and KD).” left out

CLP-induced sepsis = CLP-induced sepsis model in mice; type: in vivo, C57BL mice
Method: The animal study in C57BL mice was performed at Pharmaseed Ltd. (Israel) in compliance with The Israel Animal Welfare Act and following The Israel Board for Animal Experiments Ethics Committee approval # IL-19-1-49. On day 1, sepsis was induced following a modification of a previously published method of CLP (Ruiz et al (2016), Intensive Care Medicine Experimental 4:22-35). Sham operated control mice (n=10) were anesthetized and underwent laparotomy without puncture or cecal ligation. Sepsis induced mice were divided into groups of twenty. […] 0.14 mg/kg ZZA4263, 1.4 mg/kg ZZA4263, 25 mg/kg imipenem/cilastatin (antibiotics positive control) and vehicle (PBS), respectively, were administered i.p. to mice on day 2, 3, 4 and 5 (first dose 24 h after the surgery). […] Until termination of the study on day 7, mice were monitored with regard to morbidity and mortality (twice daily), Murine Sepsis Score (MSS; twice daily), body weight (once daily) and body temperature (twice daily).

[1] = 0.14 and 1.4 mg/kg i.p. on day 2, 3, 4 and 5

B1: ZZA4263: heterodimer ZH27/ZH32, format Z(boxB)-L2-Z(boxA)-ABD (protein)
chain: AEAKYAKEAWLAEQEIWQLPNLTEAQFQAFILKLIDDPSQSSELLSEAKKLNDSQAPKGAPGGGGSTSAEAKYAKEDWDAFWEIIWLPNLTDAQQRAFIYKLEDDPSQSSELLSEAKKLNDSQAPKASGSLAEAKEAANAELDSYGVSDFYKRLIDKAKTVEGVEALKDAILAALP
modifications: Engineered HMGB1 binding polypeptide
notes: heterodimer ZH27/ZH32, format Z(boxB)-L2-Z(boxA)-ABD
SP100 nuclear antigen
  Kd: 38 nM
  ka: 5700 M⁻¹ s⁻¹
  kd: 0.00022 s⁻¹
HMGB2, HMGB3, SP100
  lower affinity for HMGB2, HMGB3, SP100 compared to HMGB1(red): 17-550 times
CLP-induced sepsis; [1]
  Murine Sepsis Score (MSS) compared to vehicle: lower MSS
  survival rate compared to vehicle: dose dependent increased survival rate
CLP-induced sepsis; both dose groups, 0.14 and 1.4 mg/kg, imipenem/cilastatin 25 mg/kg
  Murine Sepsis Score (MSS) compared to imipenem/cilastatin: lower MSS compared to the group receiving positive control imipenem/cilastatin
CLP-induced sepsis; higher dose group, 1.4 mg/kg, imipenem/cilastatin 25 mg/kg
  survival rate compared to imipenem/cilastatin: increased survival rate compared to imipenem/cilastatin
